Test results published in the antibiotic and cytotoxicity screens of Wong et al. (2023).
Some of the results follow.

What was measured:
HSkMC = human skeletal muscle cells; assay: cytotoxicity call (relative viability < 0.9); conditions: 10 µM
HepG2 = assay: cytotoxicity call (relative viability < 0.9); conditions: 10 µM
S. aureus RN4220 = assay: growth inhibition call (relative growth <= 0.2); conditions: 50 µM

OCC(O)C(O)C(O)C(O)CO (stereo not drawn)
inactive: cytotoxicity call (HSkMC) | cytotoxicity call (HepG2) | growth inhibition call (S. aureus RN4220)

CC(C)CC#Cc1ccc2c(c1)O[C@@H](CN(C)C(=O)c1cnccn1)[C@H](C)CN([C@H](C)CO)S2(=O)=O
inactive: cytotoxicity call (HSkMC) | cytotoxicity call (HepG2) | growth inhibition call (S. aureus RN4220)

CCCN1C[C@@H](C)[C@H](OC)CN(C)C(=O)c2cc(NS(=O)(=O)c3cn(C)cn3)ccc2OC[C@@H]1C
inactive: cytotoxicity call (HSkMC) | cytotoxicity call (HepG2) | growth inhibition call (S. aureus RN4220)

O=C(CN1C(=O)CSC1=O)N1CCCC1
inactive: cytotoxicity call (HSkMC) | cytotoxicity call (HepG2) | growth inhibition call (S. aureus RN4220)

Cc1noc(C)c1NC(=O)Nc1ccc2c(c1)C(=O)N([C@H](C)CO)C[C@@H](C)[C@@H](CN(C)Cc1ccncc1)OCCCC[C@H](C)O2
inactive: cytotoxicity call (HSkMC) | cytotoxicity call (HepG2) | growth inhibition call (S. aureus RN4220)

O=C(CCc1cn(CC[C@@H]2OC(=O)[C@H](Cc3ccccc3)N3CC4=CC(=O)[C@H](C5CC5)[C@H]4[C@H]23)nn1)NO
inactive: cytotoxicity call (HSkMC) | cytotoxicity call (HepG2) | growth inhibition call (S. aureus RN4220)
